Several values for one entry are separate records, joined by “and”; a condition that tells them apart may be missing. Equal entries are not always repeated. Among all 420,000 compounds or so, about 64,000 (15%) were called active. The shares of active, inactive and inconclusive entries below differ from those in the screen. Calls come from the whole dose curve; as a rule, active = well fitted inhibition curve with a large enough effect; inconclusive = small, poorly fitted or top-dose-only effect; inactive = flat fitted curve, though single readings scatter. Potencies of inconclusive entries are doubtful fits and often do not repeat.
Test: qHTS for Inhibitors of human tyrosyl-DNA phosphodiesterase 1 (TDP1): qHTS in cells in absence of CPT; note: nearly all actives have a fitted effect of over 55% in size
Conditions: DT40 Tdp1-/- hTDP1 cells, no CPT, ATP luminescence, 48 h; activity change, negative = growth inhibition: at 46.2 µM (top of the series)
Outline: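 DT40 Tdp1-/-;hTDP1 cells, no CPT (DMSO vehicle only), 400 cells/well; compounds pin-transferred; ≥48 hr, 37 °C; CellTiter-Glo 30 min RT dark, luminescence read.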
% is set by controls: 0 for no effect and ±100 for the full control effect; potency is the fitted concentration of half-maximal effect; tags give direction and shape of the fitted curve.

**Q.** For `COc1ccc2c(CN3CCN(S(=O)(=O)c4cccs4)CC3)cc(=O)oc2c1`, which Potency is on record?
**A.** Its Potency is inconclusive: 29.1 µM [inhibitor, single point].

**Q.** For `O=C(/C=C/NNC(=O)c1ccccc1)c1ccc([N+](=O)[O-])cc1`, which Potency is on record?
**A.** Its Potency is active: 9.2 µM.

**Q.** Which “activity change, negative = growth inhibition” value does the source give for `CCN(CC)C(=O)C1CCCN(Cc2nc(-c3cnccn3)no2)C1` (stereo unspecified) here?
**A.** Its value is inactive: 4.09%.

**Q.** Which Potency does the source give for `O=S(=O)(Nc1cccc(-n2cnnn2)c1)c1cnc(Cl)c(Cl)c1` here?
**A.** Its Potency is inconclusive: 9.2 µM [inhibitor, partial curve].

**Q.** Which Potency does the source give for `COc1ccc2sc(-c3ccc(N(C)C)cc3)c(-c3cnc(OC)nc3)c2c1` here?
**A.** Its Potency is inconclusive: 18.4 µM [inhibitor, partial curve].

**Q.** Which Potency does the source give for `Cc1cc(C)c(S(=O)(=O)NCCn2ccc3ccccc32)c(C)c1` here?
**A.** Its Potency is inconclusive: 29.1 µM [inhibitor, single point].

**Q.** With `CS(=O)(=O)c1ccc(C(O)C(CO)NC(=O)C(Cl)Cl)cc1` (stereo unspecified) as the compound, how does the Potency read?
**A.** Its Potency is active: 1.64 µM.

**Q.** Which “activity change, negative = growth inhibition” value does the source give for `CCCn1nnnc1NCc1ccccc1Cl` here?
**A.** Its value is inactive: -0.779%.

**Q.** Which Potency does the source give for `Cc1ccc(-n2cnc3scc(-c4cccs4)c3c2=O)cc1` here?
**A.** The Potency was inconclusive: 16.4 µM [inhibitor, single point].

**Q.** Which Potency does the source give for `CC(C)C(=O)Nc1ccc(COc2ccccc2CN(Cc2ccccc2)C(=O)OC(C)(C)C)cc1` here?
**A.** The Potency was active: 14.6 µM.

**Q.** Which Potency does the source give for `S=C1SCN(CCc2ccccc2)CN1CCc1ccccc1` here?
**A.** Its Potency is active: 18.4 µM.

**Q.** With `COc1ccc(S(=O)(=O)N2CCOCC2)cc1Br` as the compound, how does the “activity change, negative = growth inhibition” value read?
**A.** Its value is inactive: -7.97%.

**Q.** With `O=C(c1cnn2c(C(F)(F)F)cc(-c3ccc4c(c3)OCO4)nc12)N1CCCCC1` as the compound, how does the “activity change, negative = growth inhibition” value read?
**A.** The value was inactive: -22.9%.

**Q.** Which Potency does the source give for `CCOc1ccc(NC(=O)C2CCN(C(=O)N3CC(C)Oc4ccc(Cl)cc43)CC2)cc1` (stereo unspecified) here?
**A.** The Potency was active: 14.6 µM.

**Q.** With `NS(=O)(=O)c1cc(C(=O)NC2CCSc3ccccc32)ccc1Cl` (stereo unspecified) as the compound, how does the “activity change, negative = growth inhibition” value read?
**A.** Its value is inactive: -20.3%.

**Q.** For `COc1ccc(-c2cnn3c(N)c(S(=O)(=O)C(C)(C)C)cnc23)cc1`, which Potency is on record?
**A.** Its Potency is inconclusive: 18.4 µM [inhibitor, single point].

**Q.** Which “activity change, negative = growth inhibition” value does the source give for `CC1(C)CC(C(CC(=O)N2CCCC2)Cc2ccccc2)CCO1` (stereo unspecified) here?
**A.** Its value is inactive: -1.07%.

**Q.** For `Cc1ncc(CN2CCCC(CCC(=O)NCc3ccccc3F)C2)s1` (stereo unspecified), which Potency is on record?
**A.** Its Potency is inconclusive: 29.1 µM [inhibitor, single point].

**Q.** With `CCOc1cc(-c2c(C#N)c(N)nc3c2CCCC3)ccc1O` as the compound, how does the Potency read?
**A.** The Potency was active: 20.6 µM.

**Q.** Which Potency does the source give for `Cc1ccc(CNC(=O)CCC(=O)N2CC3CCCN3c3ccccc32)cc1` (stereo unspecified) here?
**A.** The Potency was active: 18.4 µM.

**Q.** For `C=CCOC(=O)C1=C(C)NC(=S)C(C#N)(CC=C)C1c1ccccc1Cl` (stereo unspecified), which Potency is on record?
**A.** Its Potency is inconclusive: 18.4 µM [inhibitor, single point].

**Q.** Which Potency does the source give for `O=C(OCC#CCSc1nnc(-c2cccc3ccccc23)o1)c1cccs1` here?
**A.** The Potency was inconclusive: 25.1 µM [inhibitor, single point] and inconclusive: 18.4 µM [inhibitor, single point].

**Q.** For `COC(=O)[C@]12CCCCC=C1N(Cc1ccccc1)C(=O)[C@H](CC(=O)NCc1cccc3ccccc13)C2`, which Potency is on record?
**A.** Its Potency is active: 18.4 µM.

**Q.** With `Cc1cccc(C)c1NC(=O)COc1ccc2c(C)c(Cc3ccccc3)c(=O)oc2c1C` as the compound, how does the Potency read?
**A.** Its Potency is inconclusive: 4.61 µM [inhibitor, full curve].

**Q.** Which Potency does the source give for `Cc1cc(=O)n(C(C)c2ccccc2)n1C(C)c1ccccc1` (stereo unspecified) here?
**A.** The Potency was inconclusive: 29.1 µM [inhibitor, single point].

**Q.** For `COc1ccc(NC(=O)COc2ccc3c(c2)OCO3)cc1`, which activity change, negative = growth inhibition is on record?
**A.** Its activity change, negative = growth inhibition is inconclusive: -27.8% [inhibitor].

**Q.** Which activity change, negative = growth inhibition does the source give for `CC(C)CC(=O)Nc1nnc(S(=O)(=O)N(CC(C)C)c2ccccc2)s1` here?
**A.** The activity change, negative = growth inhibition was inconclusive: -34.3% [inhibitor].

**Q.** Which Potency does the source give for `O=C(Nc1ccc2oc(-c3cc(Br)ccc3Cl)nc2c1)c1cc2ccccc2o1` here?
**A.** The Potency was active: 10.3 µM.

**Q.** Which Potency does the source give for `O=S(=O)(NC1CC1)c1ccc2c3c(cccc13)CC2` here?
**A.** The Potency was inconclusive: 23.1 µM [inhibitor, single point].

**Q.** Which “activity change, negative = growth inhibition” value does the source give for `Fc1ccc(C2CC(c3ccco3)=NN2c2ccccc2)cc1` (stereo unspecified) here?
**A.** Its value is inactive: -1.45%.

**Q.** Which Potency does the source give for `CC(=O)c1cc(F)c(N2CCN(C(=O)c3ccco3)CC2)cc1C` here?
**A.** The Potency was inconclusive: 29.1 µM [inhibitor, single point].

**Q.** Which Potency does the source give for `Cc1nc(-c2ccc(S(=O)(=O)NCC3CCN(C(=O)OC(C)(C)C)CC3)s2)cs1` here?
**A.** The Potency was inconclusive: 29.1 µM [inhibitor, single point].

**Q.** Which Potency does the source give for `c1ccc(OCCN2CCN(C(c3ccccc3)c3ccccc3)CC2)cc1` here?
**A.** The Potency was active: 14.6 µM.

**Q.** Which Potency does the source give for `COc1ccc(-c2csc3ncnc(Nc4ccc(O)cc4)c23)cc1` here?
**A.** Its Potency is inconclusive: 6.51 µM [inhibitor, partial curve].

**Q.** For `O=C(CN1CCCCC1)Nc1ccc(NC(=O)c2ccccc2Cl)cc1Cl`, which Potency is on record?
**A.** Its Potency is inconclusive: 32.6 µM [inhibitor, single point].

**Q.** For `COc1cc(OC)c(NC(=O)c2csc3c2CCC(C)C3)cc1Cl` (stereo unspecified), which Potency is on record?
**A.** The Potency was inconclusive: 29.1 µM [inhibitor, single point].

**Q.** For `CCOc1ccc(NC(=O)N(Cc2ccc(C)cc2)Cc2ccccn2)cc1`, which Potency is on record?
**A.** Its Potency is inconclusive: 29.1 µM [inhibitor, partial curve, poor fit].

**Q.** With `COc1ccc(-n2c(C)nc3c(cnn3-c3ccc(Cl)cc3)c2=O)cc1` as the compound, how does the Potency read?
**A.** Its Potency is inconclusive: 29.1 µM [inhibitor, single point].

**Q.** With `c1csc(-c2nc(N3CCOCC3)c3ccccc3n2)c1` as the compound, how does the Potency read?
**A.** Its Potency is inconclusive: 20.6 µM [inhibitor, single point].

**Q.** With `CC(NC(=O)COC(=O)c1ccc[nH]c1=O)c1ccccc1` (stereo unspecified) as the compound, how does the “activity change, negative = growth inhibition” value read?
**A.** The value was inactive: -16.3%.

**Q.** For `CCOc1ccc(CCNC(=O)CN(C)S(=O)(=O)c2cccs2)cc1OCC`, which Potency is on record?
**A.** The Potency was inconclusive: 29.1 µM [inhibitor, single point].

**Q.** With `O=C(COC(=O)/C=C/c1ccco1)Nc1ccc(F)cc1Cl` as the compound, how does the “activity change, negative = growth inhibition” value read?
**A.** Its value is inactive: 29.3%.

**Q.** With `COc1ccc(CCNC(=O)CCc2c(C)nc3c(c(C)nn3-c3ccc(C)c(C)c3)c2C)cc1OC` as the compound, how does the Potency read?
**A.** Its Potency is active: 16.4 µM.

**Q.** Which Potency does the source give for `CCOCC(=O)Nc1ccc(S(=O)(=O)NCCc2ccccc2)cc1` here?
**A.** The Potency was inconclusive: 16.4 µM [inhibitor, partial curve].

**Q.** For `O=C(NCCc1ccccc1Cl)C1CCC(=O)N(CCCc2ccccc2)C1` (stereo unspecified), which Potency is on record?
**A.** Its Potency is inconclusive: 20.6 µM [inhibitor, single point].

**Q.** For `CCn1nc(NC(=O)Cc2ccc(OC)cc2)c2cc3cc(C)ccc3nc21`, which activity change, negative = growth inhibition is on record?
**A.** Its activity change, negative = growth inhibition is inconclusive: -32.1% [inhibitor].

Reference: PubChem BioAssay AID686978 (National Center for Advancing Translational Sciences (NCATS), 2013)
